# Results: PubChem BioAssay AID485281 (National Center for Advancing Translational Sciences (NCATS), 2010)
# About 260 (0.074%) of roughly 350,000 compounds were called active. The shares of active, inactive and inconclusive entries below differ from those in the screen. Calls come from the whole dose curve; as a rule, active = well fitted inhibition curve with a large enough effect; inconclusive = small, poorly fitted or top-dose-only effect; inactive = no such curve, though single readings can be large or run the other way. Potencies of inconclusive entries are doubtful fits and often do not repeat.
# Biological target: Ferritin light chain (Equus caballus) (UniProt P02791)
# UniProt P02791, sequence (P02791 whole entry, looked up): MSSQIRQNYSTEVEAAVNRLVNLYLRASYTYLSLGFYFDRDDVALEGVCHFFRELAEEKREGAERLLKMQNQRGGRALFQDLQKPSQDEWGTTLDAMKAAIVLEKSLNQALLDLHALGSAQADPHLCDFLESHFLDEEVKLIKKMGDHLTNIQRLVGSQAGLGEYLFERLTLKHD
# Assay: qHTS Assay for Identification of Novel General Anesthetics; note: nearly all actives have a fitted effect of over 20% in size
# Conditions: apoferritin/1-aminoanthracene competitive binding, fluorescence; series mostly up to 77.5 µM
# Method in brief: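 Steps: apoferritin (10 uM) was premixed with half-saturated 1-AMA in PBS, compounds were pin-transferred, plates stood 10 min at room temperature, fluorescence was read at 380/535 nm, and curves were fitted with a Hill equation.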
# Potency is the fitted concentration of half-maximal effect; tags give direction and shape of the fitted curve.
row,SMILES,Potency
1,CN(C)CCCNc1c2ccccc2nc2ccccc12,inactive
2,C=CCc1cccc(/C=N/NC(=O)CNc2ccccc2OC)c1O,"inconclusive: 15.8 µM [inhibitor, partial curve]"
3,C/C(CCc1ccc2c(c1)OCO2)=N\N=C1\NC(=O)CC(C(=O)Nc2ccc(Cl)cc2)S1 (centres undefined),"inconclusive: 50.1 µM [inhibitor, single point]"
4,O=C(CSc1ncc(-c2ccccc2)[nH]1)Nc1cccc(O)c1,"inconclusive: 12.6 µM [inhibitor, partial curve]"
5,C=CCNC(=S)N/N=C/c1ccc(OCc2ccccc2)cc1,"inconclusive: 28.2 µM [inhibitor, partial curve]"
6,CC(C)C(c1nnnn1Cc1ccc(F)cc1)N1CCN(c2ccc(O)cc2)CC1 (centres undefined),"inconclusive: 35.5 µM [inhibitor, single point]"
7,CN(Cc1ccccc1)S(=O)(=O)c1cccs1,"inconclusive: 28.2 µM [inhibitor, single point]"
8,O=C(c1c(F)cccc1F)N1CCCc2ccccc21,"inconclusive: 10 µM [inhibitor, partial curve, poor fit]"
9,Cn1c(CSCc2ccccc2Cl)n[nH]c1=S,"inconclusive: 25.1 µM [inhibitor, partial curve]"
10,COc1ccc(-c2ccc(=O)n(CC(=O)Nc3ccc(Br)cc3F)n2)cc1,"inconclusive: 11.2 µM [inhibitor, partial curve]"
11,Cc1cccc(-n2nnc(C(=O)NCc3ccco3)c2N)c1,"inconclusive: 50.1 µM [inhibitor, partial curve, poor fit]"
12,Clc1cccc(Cl)c1C1Nc2cccc3cccc(c23)N1,"inconclusive: 11.2 µM [inhibitor, full curve]"
13,O=C(C1CC1)N1CCN=C1SCc1ccc(Cl)cc1,"inconclusive: 25.1 µM [inhibitor, partial curve]"
14,CCC(C(=O)NCc1ccccc1Cl)n1c(=O)c2cccn2c2ccccc21 (centres undefined),inactive
15,CCCCCCOC(=O)c1ccc(OC(=O)c2cccnc2)cc1,"inconclusive: 39.8 µM [inhibitor, partial curve]"
16,O=[N+]([O-])c1c(NCCCO)cc(Sc2nc3ccccc3s2)c2nonc12,"inconclusive: 7.08 µM [inhibitor, full curve, poor fit]"
17,O=C(NCc1ccccc1)c1c2c(nc3ccccc13)C(=O)N(C1CCCCC1)C2,inactive
18,CCc1c(C)nc(SCC(=O)N2CCN(c3ccccc3)CC2)[nH]c1=O,inactive
19,Cc1ccc2c(c1)N(C(=O)c1ccc(F)cc1)C(C)(C)CC2(C)c1ccccc1 (centres undefined),inactive
20,Cc1cc(NC(=O)CCN2CCC(C(N)=O)CC2)ccc1Br,"inconclusive: 50.1 µM [inhibitor, single point]"
21,CCOC(=O)C1=C(C)NC(SCC(=O)OC)=C(C#N)C1c1ccc(C(=O)OC)cc1 (centres undefined),"inconclusive: 35.5 µM [inhibitor, partial curve]"
22,Cc1ccc(OCC(=O)Nc2ccccc2Sc2ccc(Cl)cc2)c([N+](=O)[O-])n1,"inconclusive: 31.6 µM [inhibitor, partial curve]"

row,SMILES,Potency
1,CC(C)(C)OC(=O)N/N=C\c1ccc([N+](=O)[O-])s1,"inconclusive: 20 µM [inhibitor, partial curve]"
2,CCOc1ccc(N(CC(=O)N/N=C/c2ccccn2)S(=O)(=O)c2ccc(Cl)cc2)cc1,inactive
3,COc1ccc2c(c1)-c1nc(N)sc1CC2,"inconclusive: 31.6 µM [inhibitor, partial curve]"
4,COc1ccccc1C(=O)CSc1ccccn1,"inconclusive: 22.4 µM [inhibitor, partial curve]"
5,CCn1c(Cn2nnc(-c3ccccc3)n2)nnc1SCC(=O)Nc1ccc(C(C)=O)cc1,"inconclusive: 50.1 µM [inhibitor, single point]"
6,CCN(Cc1ccccc1)C(=O)Cn1c(=O)cc(C)c2c(C)nn(-c3cccc(F)c3)c21,inactive
7,Cc1cccc(C)c1-n1c(C)cc(/C=N\Nc2ccc([N+](=O)[O-])cn2)c1C,"inconclusive: 44.7 µM [inhibitor, partial curve]"
8,O=C(c1ccc(N2CCCCC2)c([N+](=O)[O-])c1)N1CCN(c2ccccn2)CC1,"inconclusive: 35.5 µM [inhibitor, partial curve]"
9,O=C(Cn1ncc(Cl)c(Cl)c1=O)N1CCN(Cc2ccccc2)CC1,inactive
10,Cc1ccc(C(=O)N2CCN(c3ccc(NC(=O)CSc4ccc(Cl)cc4)cc3)CC2)cc1,inactive
11,CCOc1ccc(NC(=S)NNC(=O)c2ccc(Br)cc2)cc1,"inconclusive: 31.6 µM [inhibitor, partial curve]"
12,Clc1ccc(CSc2nnc(-c3ccc4c(c3)OCO4)o2)cc1,"inconclusive: 44.7 µM [inhibitor, single point]"
13,Oc1ccccc1N1CCN(C(=S)NCCc2ccccc2)CC1,"inconclusive: 25.1 µM [inhibitor, partial curve]"
14,Cc1cc(SCc2ccccc2)nc(=O)[nH]1,"inconclusive: 39.8 µM [inhibitor, single point]"
15,CC(Sc1ccc(Cl)cc1)C(=O)Nc1ccc(S(=O)(=O)N2CCOCC2)cc1 (centres undefined),"inconclusive: 11.2 µM [inhibitor, full curve]"
16,C/C(=N/NC(=O)CNC(=O)c1ccccn1)c1ccccc1,"inconclusive: 25.1 µM [inhibitor, partial curve]"
17,CCn1c(CNC(=O)COc2ccc(C(C)C)cc2)nnc1SCC(=O)Nc1ccc(F)cc1,"inconclusive: 31.6 µM [inhibitor, single point]"
18,O=Cc1ccc(-c2nc3ccccc3s2)o1,inactive
19,Cc1ccc(CNC(=O)C2CCN(c3nc4ccc(C)cc4[nH]3)CC2)cc1,"inconclusive: 11.2 µM [inhibitor, single point]"
20,FC(F)(F)c1ccc(C2=Nc3ccccc3NC(c3cccs3)=N2)cc1,"inconclusive: 11.2 µM [inhibitor, partial curve]"
21,CCOC(=O)c1sc(Nc2ccccc2Cl)nc1C,inactive
22,CCc1ccccc1NC(=S)N(CCN1CCOCC1)C1CCN(C(C)=O)CC1,inactive
